The values that follow come from PubChem BioAssay AID1240 (Sanford-Burnham Center for Chemical Genomics, 2008).

Each structure is given as a SMILES string. Hit rate of the full screen: of about 50,000 compounds, about 800 (1.6%) showed an effect of 50% or more. The list shows a part of the results.

The test has as its target Bcl-2-like protein 10 (Homo sapiens) (UniProt Q9HD36). As to the kind of experiment: Phenotype converters, Bcl-B/TR3 peptide binding displacement, primary biochemical FP (AID 1240).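 Note: 0% = Bcl-B with tracer peptide and DMSO and 100% = tracer peptide lacking Bcl-B.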 The settings on record: GST-Bcl-B / FITC-TR3 peptide fluorescence polarization; stronger effect = higher value; compound at 3.75 mg/L. Background: In fluorescence polarisation assays a small probe gives low polarisation when free and higher when bound to something large.
UniProt Q9HD36, sequence (Q9HD36 whole entry, looked up): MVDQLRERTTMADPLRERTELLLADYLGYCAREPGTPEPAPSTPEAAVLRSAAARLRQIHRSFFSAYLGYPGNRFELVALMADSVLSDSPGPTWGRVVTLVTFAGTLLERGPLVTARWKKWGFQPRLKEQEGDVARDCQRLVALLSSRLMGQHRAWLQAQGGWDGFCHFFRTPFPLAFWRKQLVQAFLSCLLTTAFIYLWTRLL
In the case of `CCOCc1ccc(O)c2ncccc12`, the displacement is -14.7%.

For the compound `O=C(CN1C(=O)S/C(=C/c2ccccc2F)C1=O)Nc1cccc(O)c1`, the displacement is 13.2%.

For `COc1ccc(C(CC(=O)c2ccc(Br)cc2)Nc2ccc([N+](=O)[O-])cc2)cc1` (centres undefined), the displacement is -6%.

`C=C(Br)Cn1c(C(C)O)nc2ccccc21` (centres undefined): the displacement was -10.9%.

With `COCCCNc1ccc2c3c(nc(=O)n2C)-c2ccccc2C(=O)c13`, the displacement stood at 139%.

Turning to `O=c1/c(=C\c2cccc(OS(=O)(=O)c3cccc([N+](=O)[O-])c3)c2)sc2nc3ccccc3n12`, the displacement was 101%.

On to `COc1cc2c(cc1OC)C(C)N(C(=O)C1(c3ccccc3)CCCC1)CC2` (centres undefined), for which the displacement was determined as 1.4%.

`CC(=O)N1CCN(c2cc(N3CCCC3)c(F)cc2[N+](=O)[O-])CC1`: the displacement was determined as 7%.

Turning to `O=C(CNC(=O)c1ccccc1)OCC(=O)c1ccc(Cl)cc1`, the displacement worked out at 6%.

As for `Cc1cc(Br)ccc1OCC(=O)O/N=C(\N)c1ccncc1`, the displacement is 0.9%.

With `O=C(Nc1cccc(C(F)(F)F)c1)c1nn2c(c1Br)NC(c1cccs1)CC2C(F)(F)F` (centres undefined), the displacement was 4.5%.

Turning to `COc1ccccc1/C=C(\C)C(=O)c1c(C)cc(C)[nH]c1=O`, the displacement is 15.6%.

For `CCOC(=O)C1=C(O)/C(=C/c2ccc(OCC(=O)Nc3ccc(C)cc3)cc2)N=C1C`, the displacement was 14.7%.

For `O=C(NC12CC3CC(CC(C3)C1)C2)c1cncc(O)c1`, the displacement was -1.8%.

With `O=C(Nc1ccc(Cl)cc1)Nc1nnc(-c2cccc([N+](=O)[O-])c2)s1`, the displacement is 18.7%.

For `CCOC(=O)C(C)Oc1ccc2c(=O)c(Oc3ccc(OC)cc3)coc2c1` (centres undefined), the displacement turned out to be 1.4%.

Consider `CC(=O)NS(=O)(=O)c1ccc(NS(=O)(=O)c2ccc([N+](=O)[O-])cc2)cc1`, for which the displacement is -7%.

On to `O=C(Nc1ccc(-c2nc3ccccc3o2)cc1)c1ccc(NC(=O)c2cc3ccccc3o2)cc1`, for which the displacement was 33%.

`Cc1cc(C)c2oc(-c3ccc(NC(=S)NC(=O)c4ccco4)cc3)nc2c1`: the displacement is -28.6%.

For the compound `Cc1ccn2c(C(=O)N/N=C\c3ccc4c(c3)OCO4)c(C)nc2c1`, the displacement was determined as 7.7%.

Consider `Cc1cccc(C)c1OCC(=O)Nc1ccc(N(C)C)cc1`, for which the displacement turned out to be 7.9%.

As for `COc1ccc(CN2CCN(C(=O)c3cccc(F)c3)CC2)cc1OCc1ccccc1`, the displacement was -10.5%.

As for `Cc1ccc(OCc2nnc(NC(=O)c3ccccc3)s2)cc1C`, the displacement was 16.2%.

As for `COc1ccc([N+](=O)[O-])cc1NC(=O)c1c(Cl)cccc1Cl`, the displacement is -3.9%.

As to `Cc1ccc(NC(=O)C2C(c3ccccc3)=C2c2ccccc2)c(C)c1`, the displacement was 4.5%.

As to `COc1ccc(NC(=O)/C=C/c2ccccc2Cl)c([N+](=O)[O-])c1`, the displacement was 15.9%.

On to `O=C(N/N=C/c1ccc(OC(=O)c2cccs2)cc1)c1ccncc1`, for which the displacement came out at 5.2%.

As to `O=[N+]([O-])c1cccc(S(=O)(=O)Nc2cccc(F)c2)c1`, the displacement was 43.2%.

Regarding `CCOC(=O)c1ccc(NC(=O)CN(c2ccc(OC)cc2)S(=O)(=O)c2ccc(C)cc2)cc1`, the displacement is 2.3%.

As for `O=C(O/N=C(/c1ccncc1)c1ccc([N+](=O)[O-])cc1)c1ccccc1F`, the displacement came to 0.6%.

With `Cc1nnc(SCc2ccccc2)[nH]c1=O`, the displacement was 3.9%.

With `O=C(/C=C/c1ccco1)Nc1cccc(Cl)c1Cl`, the displacement amounted to 3.5%.

As for `CS(=O)(=O)N(Cc1ccccc1)c1ccc(C(=O)Nc2ccc(F)c(Cl)c2)cc1`, the displacement turned out to be 0.4%.

For `CC(C)C(=O)Nc1ccc2oc(-c3ccc(Cl)cc3)nc2c1`, the displacement came to 2.4%.

For `COc1ccccc1-c1c(C(F)(F)F)oc2cc(OC(=O)c3ccc(Cl)cc3)ccc2c1=O`, the displacement was determined as 6.7%.

With `COc1cc(C2C3=C(CC(C)(C)CC3=O)OC3=C2C(=O)CC(C)(C)C3)ccc1OCc1ccccc1`, the displacement was found to be 12.6%.

For the compound `CC(C)(C)NC(=S)Nc1ccccc1`, the displacement was determined as 10.5%.

With `CCOC(=O)C1=CN(c2ccc(C)c(C)c2)C=C(C(=O)OCC)C1c1ccsc1`, the displacement turned out to be 0.6%.

Take `CCNC(=O)c1sc2cc(C)ccc2c1Cl`: the displacement was -9.9%.

For `Cc1ccc(S(=O)(=O)N(CC(=O)NCc2ccc(Cl)cc2)Cc2ccccc2)cc1`, the displacement is -6%.

`Cc1ccoc1C(=O)Nc1ccccc1Oc1ccccc1`: the displacement was -14.6%.

Consider `CC1=NN(c2cccc(C(=O)O)c2)C(=O)/C1=C\c1ccc(O)c([N+](=O)[O-])c1`, for which the displacement was -33.6%.

Consider `Cc1ccc(NCC(O)Cn2c3ccccc3c3ccccc32)c(C)c1` (centres undefined), for which the displacement turned out to be 5.9%.

Take `COc1ccc(CNC(=O)CSCC(=O)Nc2ccc3ccccc3c2)cc1`: the displacement was found to be 6.9%.

As to `Cc1ccc(C(=O)CCNc2ccc(F)cc2)o1`, the displacement stood at 6.3%.

For `CCCOc1ccc(CSc2nncn2N)cc1`, the displacement was determined as 0.6%.

Take `CC(C)(C)N1C(=O)c2ccc(C(=O)c3ccc4c(c3)C(=O)N(C(C)(C)C)C4=O)cc2C1=O`: the displacement stood at 12.3%.

Take `COC(=O)c1c(NC(=O)C2CCCCC2C(=O)O)sc2c1CCC(c1ccccc1)C2` (centres undefined): the displacement was -6.6%.

Regarding `COc1ccccc1C(=O)N/N=C/c1ccc(N2Cc3ccccc3C2)cc1`, the displacement was 2.8%.

Regarding `O=C(Nc1ccccc1)C(C(=O)Nc1ccccc1)C12CC3CC(CC(C3)C1)C2`, the displacement is -6.7%.

On to `COc1ccc2c(=O)cc(C(Cl)(Cl)Cl)oc2c1`, for which the displacement came to 5.6%.

Turning to `N/C(=N\OC(=O)c1ccc(Cl)c([N+](=O)[O-])c1)c1ccncc1`, the displacement is 1%.

As for `CCOC(=O)C1=NNC(C(=O)c2ccc(OC)cc2)C1c1ccccc1Cl` (centres undefined), the displacement is -2.6%.

With `Cc1ccc(C=C2C(=O)c3ccccc3C2=O)o1`, the displacement is 10.9%.

As for `O=C(/C=C/Nc1cccc(Cl)c1Cl)c1ccccc1`, the displacement was -6.4%.

Regarding `Brc1ccc(CN2CCN(C3CCCC3)CC2)cc1`, the displacement was 5.6%.

On to `Cc1cc(C)n(C(=O)c2cc([N+](=O)[O-])ccc2Cl)n1`, for which the displacement was 12.4%.

For `COc1cc(/C=C2/SC(=S)NC2=O)cc(Cl)c1OCc1ccccc1F`, the displacement is -9%.

For the compound `CCCCc1c(C)[nH]c2ccc(OC)cc2c1=S`, the displacement stood at 0%.

Take `CC(C(=O)N1c2ccccc2CCc2ccccc21)N1C(=O)c2ccccc2C1=O` (centres undefined): the displacement worked out at 12.2%.

For the compound `c1ccc(-c2nnc(SC3CCCC3)nc2-c2ccccc2)cc1`, the displacement was 0.1%.

As to `COc1ccc(C(=CCl)c2ccc(OC)cc2)cc1`, the displacement was -5.1%.

Take `CC(C)c1cccc(C(C)C)c1NC(=O)c1cccs1`: the displacement stood at 7.8%.

As to `CCOCn1c2ccc(Cl)cc2c2cc(Cl)ccc21`, the displacement was -10.7%.

Take `C=CCN(c1ccc(C(=O)O)cc1)S(=O)(=O)c1ccc(/C=C/C(=O)O)cc1`: the displacement is -32.4%.

Turning to `CCc1ccccc1NC(=O)c1cc(-c2cccs2)nc2ccccc12`, the displacement is -3.8%.

As to `O=C1C=C(Nc2ccccc2C(=O)O)CC(c2ccccc2)C1` (centres undefined), the displacement amounted to 13%.

As to `COc1ccccc1CNc1cc(C)ccc1OC`, the displacement stood at 4.5%.

In the case of `COc1cccc(/C=C/C(=O)c2ccc(C)cc2)c1OC`, the displacement came to 0.7%.
